# Experimental data taken from PubChem BioAssay AID624417 (National Center for Advancing Translational Sciences (NCATS), 2012).
# Out of some 410,000 compounds screened, about 6,400 (1.6%) were called active. Inconclusive means that the source gave no clear call. Such entries were picked first, then a sample of the others. Calls come from the whole dose curve; as a rule, active = well fitted inhibition curve with a large enough effect; inconclusive = small, poorly fitted or top-dose-only effect; inactive = no such curve, though single readings can be large or run the other way. A potency beside an inconclusive call is a rough fit, not a confirmed value.
# Target: Glucagon-like peptide 1 receptor (Homo sapiens) (UniProt P43220)
# UniProt P43220, sequence (P43220 whole entry, looked up): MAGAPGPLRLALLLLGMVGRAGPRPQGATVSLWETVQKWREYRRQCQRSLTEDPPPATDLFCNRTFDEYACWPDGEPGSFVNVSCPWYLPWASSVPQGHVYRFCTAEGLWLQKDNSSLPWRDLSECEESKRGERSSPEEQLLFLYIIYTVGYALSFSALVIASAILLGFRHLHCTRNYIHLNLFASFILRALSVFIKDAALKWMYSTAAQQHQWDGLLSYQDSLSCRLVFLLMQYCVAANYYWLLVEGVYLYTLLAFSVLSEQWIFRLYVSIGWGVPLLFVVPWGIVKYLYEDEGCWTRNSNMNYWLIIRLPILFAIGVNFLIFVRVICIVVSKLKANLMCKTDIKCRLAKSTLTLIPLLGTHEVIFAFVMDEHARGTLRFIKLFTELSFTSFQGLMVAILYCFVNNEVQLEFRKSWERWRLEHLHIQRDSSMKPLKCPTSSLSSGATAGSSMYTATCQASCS
# Assay: qHTS of GLP-1 Receptor Inverse Agonists (Inhibition Mode); note: nearly all actives have a fitted effect of over 55% in size
# Details: HEK293 GLP-1R CRE-luciferase, luminescence, 24 h, GLP-1R form is constitutively active; activity change, negative = inhibition: at 38.3 µM (top of the series) unless noted
# Outline: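 Stable HEK293 clone (constitutively active GLP-1R + cAMP-response luciferase); 200 cells/uL plated, 12 h pre-culture, compound 24 hr, 37 deg C/5% CO2; detection reagent 12 min RT; luminescence.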
# % is set by controls: 0 for no effect and ±100 for the full control effect; potency is the fitted concentration of half-maximal effect; tags give direction and shape of the fitted curve.
SMILES,Potency,"activity change, negative = inhibition"
Cc1cc(OCc2cn(CC(=O)c3ccc(O)cc3)nn2)ccc1[N+](=O)[O-],"inconclusive: 14.1 µM [inhibitor, partial curve, poor fit]",–
COCCCn1c(=O)c2ccccc2n(Cc2cccc(C)c2)c1=O,"inconclusive: 25.1 µM [inhibitor, partial curve, poor fit]",–
CC(=O)c1cn(C(=O)c2ccc(Cl)cc2)c2ccccc12,inactive,–
N#Cc1c(N)nc2c(c1N)CC(CCl)O2 (configuration not stated),inactive,–
Cc1nc(N2C(=O)C(=O)/C(=C(/O)c3ccccc3)C2c2ccco2)sc1C (configuration not stated),"inconclusive: 2 µM [inhibitor, full curve]",–
CC(C)Nc1nc(Cl)nc(N(C#N)CN2C(=O)c3ccccc3S2(=O)=O)n1,inactive,–
Cc1ccc(-c2cn3cccc(C)c3n2)cc1NS(=O)(=O)c1ccccc1,"inconclusive: 12.6 µM [inhibitor, single point]",–
O=c1[nH]c(C2CCN(S(=O)(=O)/C=C/c3ccccc3)CC2)nc2c1nnn2Cc1ccccc1,"inconclusive: 28.2 µM [inhibitor, single point]",–
Cc1ccc(CN(Cc2ccco2)c2cnc(S(C)(=O)=O)nc2C(=O)Nc2ccc(Br)cc2)o1,"inconclusive: 2.82 µM [inhibitor, full curve]",–
CC(=O)Nc1cccc(-c2ccnc3c2CC(C)(C(=O)NCc2ccc(N(C)C)cc2)O3)c1 (configuration not stated),"inconclusive: 2.51 µM [inhibitor, full curve]",–
COc1ccc(CCN(C)C(=O)c2cc(S(=O)(=O)N3CCCCC3)ccc2Cl)cc1OC,"inconclusive: 8.91 µM [inhibitor, partial curve, poor fit]",–
CCCCN(c1ccccc1)c1ncnc2c1cnn2-c1ccc(Cl)cc1,"inconclusive: 2 µM [inhibitor, full curve, poor fit]",–
COc1ccc(OC)c(CCNC(=O)CCn2c(=O)c3cccn3c3cccnc32)c1,inactive,–
Cc1ccccc1Nc1c(-c2ccsc2)nc2c(C)cccn12,"inconclusive: 28.2 µM [inhibitor, single point]",–
c1ccc(-[n+]2nc(Nc3cccc4ccccc34)sc2-c2c3ccccc3cc3ccccc23)cc1,"inconclusive: 11.2 µM [inhibitor, partial curve, poor fit]",–
O=C(CN1C(=O)NC2(CCCC2)C1=O)Nc1nc(-c2ccc(F)cc2)cs1,"inconclusive: 2.24 µM [inhibitor, full curve, poor fit]",–
O=C(CCC(=O)N1CCN(S(=O)(=O)c2ccc(Cl)cc2)CC1)NC1CCCc2ccccc21 (configuration not stated),"inconclusive: 11.2 µM [inhibitor, single point]",–
COc1ccc(OC)c(S(=O)(=O)N2Cc3ccccc3CC2C(=O)Nc2ccc(C(C)=O)cc2)c1 (configuration not stated),inactive,–
CCN(Cc1ccc(OC)cc1)c1ccc(-c2nc(-c3ccncc3)no2)cc1[N+](=O)[O-],"inconclusive: 11.2 µM [inhibitor, partial curve, poor fit]",–
CCC(=O)N1CCc2cc(S(=O)(=O)CCC(=O)N3CCN(c4cccc(C)c4)C(C)C3)ccc21 (configuration not stated),inactive,–
O=C(O)CN1C(=O)/C(=C\c2ccccc2OCc2ccccc2)SC1=S,"inconclusive: 28.2 µM [inhibitor, single point]",–

SMILES,Potency,"activity change, negative = inhibition"
CCc1ccc(OCC2c3cc(OC)c(OC)cc3CCN2C(=S)NC)cc1 (configuration not stated),"inconclusive: 28.2 µM [inhibitor, single point]",–
CC1CCC(NC(=O)c2cccc(S(=O)(=O)NCc3ccccc3)c2)CC1 (configuration not stated),"inconclusive: 12.6 µM [inhibitor, single point]",–
N#CC(=C1C=C(Br)C(=NO)C=C1Cl)c1ccc(Cl)cc1,"inconclusive: 28.2 µM [inhibitor, single point]",–
Cc1cc(N2CCOCC2)nc2ccc(Cl)cc12,inactive,–
CN(Cc1cnn(-c2ccc(F)cc2)c1)Cc1nc(Cc2ccccc2)no1,"inconclusive: 28.2 µM [inhibitor, single point]",–
COC(=O)/C=C1/SC(=Nc2ccc(C)cc2C)NC1=O,"inconclusive: 11.2 µM [inhibitor, single point]",–
CCOCCOC(=O)c1[nH]c2c(c1C)C(=O)CC(c1ccc(N(C)C)cc1)C2 (configuration not stated),"inconclusive: 10 µM [inhibitor, single point]",–
Cc1ccc(CNC(=O)c2cn(C)c3ccc(S(=O)(=O)N(C)C4CCCCC4)cc3c2=O)cc1,inactive,–
CCc1cnc(Nc2nc(C(N)Cc3ccc(Cl)cc3)cs2)nc1 (configuration not stated),"inconclusive: 6.31 µM [inhibitor, partial curve, poor fit]",–
O=C(Nc1ccc(-n2ccc(C(F)(F)F)n2)cc1)c1cccs1,"inconclusive: 10 µM [inhibitor, single point]",–
COc1ccc(CCN(C)CC(=O)Nc2ccc(F)c(Cl)c2)cc1OC,"inconclusive: 28.2 µM [inhibitor, single point]",–
COc1ccccc1N1CCN(Cc2ccc(OC)c(OC)c2OC)CC1,inactive,–
N#Cc1nc2ccccc2n1OCc1ccccc1,"inconclusive: 8.91 µM [inhibitor, partial curve, poor fit]",–
CCC(=O)N1CCc2cc(Br)cc(S(=O)(=O)N(C)c3ccc(OC)cc3)c21,"inconclusive: 28.2 µM [inhibitor, single point]",–
O=C(NCc1cccc(C(F)(F)F)c1)c1c[nH]c(=O)s1,"inconclusive: 20 µM [inhibitor, single point]",–
CCc1ccc(OCC(=O)NC(NC(=S)Nc2ccccc2OC)C(Cl)(Cl)Cl)cc1 (configuration not stated),"inconclusive: 1.78 µM [inhibitor, full curve, poor fit]",–
CCN(CC)CCCNC(=O)c1nn(-c2cccc(OC)c2)c(=O)c2ccccc12,inactive,–
O=S(=O)(Cc1ccc(Cl)cc1)Oc1ccc(Cl)cc1,"inconclusive: 28.2 µM [inhibitor, single point]",–
Cc1cc(F)ccc1N1CCC(N2CCN(C)C(CCO)C2)CC1 (configuration not stated),active: 4.47 µM,–
COc1ccc(Cl)cc1NC(=O)C/C(C)=N/NC(=O)c1ccc(O)cc1,"inconclusive: 14.1 µM [inhibitor, single point]",–
CCOC(=O)C1CCCN(Cc2cc(Br)c(OC)cc2OC)C1 (configuration not stated),inactive,–

SMILES,Potency,"activity change, negative = inhibition"
Cc1ccc(Cl)cc1N1CCN(C(c2ccc(F)cc2)c2nnc(-c3ccccc3)o2)CC1 (configuration not stated),"inconclusive: 11.2 µM [inhibitor, partial curve]",–
C[C@@]12C(=O)Nc3ccc(F)cc3C(=O)N1[C@H]1c3cc(Cl)ccc3OC[C@@H]1[C@@H]2c1ccccc1,"inconclusive: 7.94 µM [inhibitor, partial curve, poor fit]",–
COC(=O)c1sccc1S(=O)(=O)N1CCN(c2cccc(C)c2C)CC1,"inconclusive: 28.2 µM [inhibitor, single point]",–
CN1CCCC(OC(=O)c2ccc(C(C)(C)C)cc2)C1 (configuration not stated),"inconclusive: 2 µM [inhibitor, partial curve, poor fit]",–
Cc1ccc(C)c(NC(=S)NC(C)C(c2ccccc2)N2CCN(C)CC2)c1 (configuration not stated),–,inconclusive: -44.5% [inhibitor] [at 7.66 µM]
CCOc1ccc2nc(C(=O)N3CCCC(C)C3)sc2c1 (configuration not stated),"inconclusive: 11.2 µM [inhibitor, single point]",–
CC(C)c1ccc(OCC(=O)NC2CC(C)(C)NC(C)(C)C2)c(Br)c1,"inconclusive: 8.91 µM [inhibitor, partial curve, poor fit]",–
COc1ccc(C2CC(c3ccc4ccccc4c3OC(C)=O)=NN2C(C)=O)cc1 (configuration not stated),"inconclusive: 28.2 µM [inhibitor, single point]",–
COc1cc(OC)cc(C(=O)Nn2cc(C(=O)Nc3ccccc3F)c3ccccc3c2=O)c1,"inconclusive: 28.2 µM [inhibitor, single point]",–
COc1ccc2c(c1)C(c1ccc(Cl)cc1)NC(=O)C2 (configuration not stated),"inconclusive: 2 µM [inhibitor, partial curve, poor fit]",–
O=C(Nc1ccc(Cl)cc1F)c1cccc2ccccc12,"inconclusive: 31.6 µM [inhibitor, single point]",–
O=C(C[n+]1ccc2ccccc2c1)Nc1cc(C(F)(F)F)ccc1Cl,"inconclusive: 20 µM [inhibitor, partial curve, poor fit]",–
Cc1cc(C(=O)COC(=O)c2cccnc2Cl)c(C)n1CC1CCCO1 (configuration not stated),"inconclusive: 1.12 µM [inhibitor, partial curve, poor fit]",–
O=C(C1CCC1)N1CCN(c2cccc(C(F)(F)F)c2)CC1,"inconclusive: 31.6 µM [inhibitor, single point]",–
CCOc1ccc(-c2cc(CCCC(=O)Nc3cccc(OC)c3)no2)cc1,"inconclusive: 8.91 µM [inhibitor, partial curve, poor fit]",–
CC1CCCCN1CCNC(=O)c1ccc2c(=O)n(CCc3ccccc3)c(=O)[nH]c2c1 (configuration not stated),"inconclusive: 3.16 µM [inhibitor, full curve]",–
CC(C)(CNC(=O)c1ccc(S(=O)(=O)Nc2ccc(Cl)cc2)cc1)N1CCOCC1,"inconclusive: 3.98 µM [inhibitor, partial curve, poor fit]",–
COC(=O)c1ccccc1NC1=C/C(=N\S(=O)(=O)c2ccc(C(=O)O)cc2)c2ccccc2C1=O,"inconclusive: 28.2 µM [inhibitor, single point]",–
CCc1ccccc1OCC(=O)Nc1ccc(N2CCCC2)cc1C,"inconclusive: 28.2 µM [inhibitor, single point]",–
N/C(=N\OC(=O)c1cc(Br)ccc1Cl)c1ccccn1,"inconclusive: 25.1 µM [inhibitor, single point]",–
